# Laboratory results: the supplement of paper PMC8728848
# The list shows a part of the results.
# Key:
# Test in all cases: glycan array binding signal (z-score within array); higher = stronger binding
# Conditions in all cases: glycan notation: IUPAC condensed, linker removed
# [1] = molecular target: Gal(b1-4)GlcNAc(b1-2)[Gal(b1-4)GlcNAc(b1-6)]Man(a1-6)[GlcNAc(b1-4)][Gal(b1-4)GlcNAc(b1-2)Man(a1-3)]Man(b1-4)GlcNAc(b1-4)GlcNAc
# Outline: (§1)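 The binding signal is a Z-score computed within each array and averaged over linkers. Arrays of the same protein sequence at different concentrations or buffers were also averaged together. Data originate from 3228 arrays in the Consortium for Functional Glycomics database, kept only where the protein sequence was available.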
# [2] = molecular target: Gal(b1-4)GlcNAc(b1-2)[Gal(b1-4)GlcNAc(b1-6)]Man(a1-6)[GlcNAc(b1-4)][Gal(b1-4)GlcNAc(b1-2)[Gal(b1-4)GlcNAc(b1-4)]Man(a1-3)]Man(b1-4)GlcNAc(b1-4)[Fuc(a1-6)]GlcNAc
# Outline: as §1
# [3] = molecular target: Gal(b1-4)GlcNAc(b1-3)Gal(b1-3)GalNAc
# Outline: as §1
# [4] = molecular target: Gal(b1-4)GlcNAc(b1-3)Gal(b1-3)GlcNAc
# Outline: as §1
# [5] = molecular target: Gal(b1-4)GlcNAc(b1-3)Gal(b1-4)Glc
# Outline: as §1
# [6] = molecular target: Gal(b1-4)GlcNAc(b1-3)Gal(b1-4)GlcNAc
# Outline: as §1
# [7] = molecular target: Gal(b1-4)GlcNAc(b1-3)Gal(b1-4)GlcNAc(b1-2)Man(a1-3)[Gal(b1-4)GlcNAc(b1-3)Gal(b1-4)GlcNAc(b1-2)Man(a1-6)]Man(b1-4)GlcNAc(b1-4)GlcNAc
# Outline: as §1
# [8] = molecular target: Gal(b1-4)GlcNAc(b1-3)Gal(b1-4)GlcNAc(b1-2)Man(a1-3)[Gal(b1-4)GlcNAc(b1-3)Gal(b1-4)GlcNAc(b1-2)Man(a1-6)]Man(b1-4)GlcNAc(b1-4)[Fuc(a1-6)]GlcNAc
# Outline: as §1
# [9] = molecular target: Gal(b1-4)GlcNAc(b1-3)Gal(b1-4)GlcNAc(b1-2)[Gal(b1-4)GlcNAc(b1-3)Gal(b1-4)GlcNAc(b1-6)]Man(a1-6)[Gal(b1-4)GlcNAc(b1-3)Gal(b1-4)GlcNAc(b1-2)Man(a1-3)]Man(b1-4)GlcNAc(b1-4)GlcNAc
# Outline: as §1
# [10] = molecular target: Gal(b1-4)GlcNAc(b1-3)Gal(b1-4)GlcNAc(b1-2)[Gal(b1-4)GlcNAc(b1-3)Gal(b1-4)GlcNAc(b1-6)]Man(a1-6)[Gal(b1-4)GlcNAc(b1-3)Gal(b1-4)GlcNAc(b1-2)Man(a1-3)]Man(b1-4)GlcNAc(b1-4)[Fuc(a1-6)]GlcNAc
# Outline: as §1
# [11] = molecular target: Gal(b1-4)GlcNAc(b1-3)Gal(b1-4)GlcNAc(b1-3)Gal(b1-4)GlcNAc
# Outline: as §1
# [12] = molecular target: Gal(b1-4)GlcNAc(b1-3)Gal(b1-4)GlcNAc(b1-3)Gal(b1-4)GlcNAc(b1-2)Man(a1-3)[Gal(b1-4)GlcNAc(b1-3)Gal(b1-4)GlcNAc(b1-3)Gal(b1-4)GlcNAc(b1-2)Man(a1-6)]Man(b1-4)GlcNAc(b1-4)GlcNAc
# Outline: as §1
# [13] = molecular target: Gal(b1-4)GlcNAc(b1-3)Gal(b1-4)GlcNAc(b1-3)Gal(b1-4)GlcNAc(b1-2)Man(a1-3)[Gal(b1-4)GlcNAc(b1-3)Gal(b1-4)GlcNAc(b1-3)Gal(b1-4)GlcNAc(b1-2)Man(a1-6)]Man(b1-4)GlcNAc(b1-4)[Fuc(a1-6)]GlcNAc
# Outline: as §1
# [14] = molecular target: Gal(b1-4)GlcNAc(b1-3)Gal(b1-4)GlcNAc(b1-3)Gal(b1-4)GlcNAc(b1-2)[Gal(b1-4)GlcNAc(b1-3)Gal(b1-4)GlcNAc(b1-3)Gal(b1-4)GlcNAc(b1-6)]Man(a1-6)[Gal(b1-4)GlcNAc(b1-3)Gal(b1-4)GlcNAc(b1-3)Gal(b1-4)GlcNAc(b1-2)Man(a1-3)]Man(b1-4)GlcNAc(b1-4)[Fuc(a1-6)]GlcNAc
# Outline: as §1
# [15] = molecular target: Gal(b1-4)GlcNAc(b1-3)Gal(b1-4)GlcNAc(b1-3)Gal(b1-4)GlcNAc(b1-3)Gal(b1-4)GlcNAc(b1-2)Man(a1-3)[Gal(b1-4)GlcNAc(b1-3)Gal(b1-4)GlcNAc(b1-3)Gal(b1-4)GlcNAc(b1-3)Gal(b1-4)GlcNAc(b1-2)Man(a1-6)]Man(b1-4)GlcNAc(b1-4)GlcNAc
# Outline: as §1
# [16] = molecular target: Gal(b1-4)GlcNAc(b1-3)Gal(b1-4)GlcNAc(b1-3)Gal(b1-4)GlcNAc(b1-3)Gal(b1-4)GlcNAc(b1-2)Man(a1-3)[Gal(b1-4)GlcNAc(b1-3)Gal(b1-4)GlcNAc(b1-3)Gal(b1-4)GlcNAc(b1-3)Gal(b1-4)GlcNAc(b1-2)Man(a1-6)]Man(b1-4)GlcNAc(b1-4)[Fuc(a1-6)]GlcNAc
# Outline: as §1
# [17] = molecular target: Gal(b1-4)GlcNAc(b1-3)Gal(b1-4)GlcNAc(b1-3)Gal(b1-4)GlcNAc(b1-3)Gal(b1-4)GlcNAc(b1-2)[Gal(b1-4)GlcNAc(b1-3)Gal(b1-4)GlcNAc(b1-3)Gal(b1-4)GlcNAc(b1-3)Gal(b1-4)GlcNAc(b1-6)]Man(a1-6)[Gal(b1-4)GlcNAc(b1-3)Gal(b1-4)GlcNAc(b1-3)Gal(b1-4)GlcNAc(b1-3)Gal(b1-4)GlcNAc(b1-2)Man(a1-3)]Man(b1-4)GlcNAc(b1-4)[Fuc(a1-6)]GlcNAc
# Outline: as §1
# [18] = molecular target: Gal(b1-4)GlcNAc(b1-3)Gal(b1-4)GlcNAc(b1-3)Gal(b1-4)GlcNAc(b1-3)Gal(b1-4)GlcNAc(b1-3)Gal(b1-4)GlcNAc(b1-2)Man(a1-3)[Gal(b1-4)GlcNAc(b1-3)Gal(b1-4)GlcNAc(b1-3)Gal(b1-4)GlcNAc(b1-3)Gal(b1-4)GlcNAc(b1-3)Gal(b1-4)GlcNAc(b1-2)Man(a1-6)]Man(b1-4)GlcNAc(b1-4)GlcNAc
# Outline: as §1
# [19] = molecular target: Gal(b1-4)GlcNAc(b1-3)Gal(b1-4)GlcNAc(b1-3)Gal(b1-4)GlcNAc(b1-3)Gal(b1-4)GlcNAc(b1-3)Gal(b1-4)GlcNAc(b1-2)Man(a1-3)[Gal(b1-4)GlcNAc(b1-3)Gal(b1-4)GlcNAc(b1-3)Gal(b1-4)GlcNAc(b1-3)Gal(b1-4)GlcNAc(b1-3)Gal(b1-4)GlcNAc(b1-2)Man(a1-6)]Man(b1-4)GlcNAc(b1-4)[Fuc(a1-6)]GlcNAc
# Outline: as §1
# [20] = molecular target: Gal(b1-4)GlcNAc(b1-3)Gal(b1-4)GlcNAc(b1-3)Gal(b1-4)GlcNAc(b1-3)Gal(b1-4)GlcNAc(b1-3)Gal(b1-4)GlcNAc(b1-2)[Gal(b1-4)GlcNAc(b1-3)Gal(b1-4)GlcNAc(b1-3)Gal(b1-4)GlcNAc(b1-3)Gal(b1-4)GlcNAc(b1-3)Gal(b1-4)GlcNAc(b1-6)]Man(a1-6)[Gal(b1-4)GlcNAc(b1-3)Gal(b1-4)GlcNAc(b1-3)Gal(b1-4)GlcNAc(b1-3)Gal(b1-4)GlcNAc(b1-3)Gal(b1-4)GlcNAc(b1-2)Man(a1-3)]Man(b1-4)GlcNAc(b1-4)[Fuc(a1-6)]GlcNAc
# Outline: as §1
# [21] = molecular target: Gal(b1-4)GlcNAc(b1-3)Gal(b1-4)GlcNAc(b1-3)Gal(b1-4)GlcNAc(b1-3)Gal(b1-4)GlcNAc(b1-3)Gal(b1-4)GlcNAc(b1-3)Gal(b1-4)GlcNAc(b1-2)Man(a1-3)[Gal(b1-4)GlcNAc(b1-3)Gal(b1-4)GlcNAc(b1-3)Gal(b1-4)GlcNAc(b1-3)Gal(b1-4)GlcNAc(b1-3)Gal(b1-4)GlcNAc(b1-3)Gal(b1-4)GlcNAc(b1-2)Man(a1-6)]Man(b1-4)GlcNAc(b1-4)GlcNAc
# Outline: as §1
# [22] = molecular target: Gal(b1-4)GlcNAc(b1-3)Gal(b1-4)GlcNAc(b1-3)GalNAc
# Outline: as §1
# [23] = molecular target: Gal(b1-4)GlcNAc(b1-3)Gal(b1-4)GlcNAc(b1-3)[Gal(b1-4)GlcNAc(b1-3)Gal(b1-4)GlcNAc(b1-6)]GalNAc
# Outline: as §1
# [24] = molecular target: Gal(b1-4)GlcNAc(b1-3)Gal(b1-4)GlcNAc(b1-6)[Gal(b1-3)]GalNAc
# Outline: as §1
# [25] = molecular target: Gal(b1-4)GlcNAc(b1-3)Gal(b1-4)[Fuc(a1-3)]GlcNAc(b1-3)Gal(b1-4)[Fuc(a1-3)]GlcNAc
# Outline: as §1
# [26] = molecular target: Gal(b1-4)GlcNAc(b1-3)GalNAc
# Outline: as §1
# [27] = molecular target: Gal(b1-4)GlcNAc(b1-3)[Fuc(a1-3)GlcNAc(b1-6)]Gal(b1-4)Glc
# Outline: as §1
# [28] = molecular target: Gal(b1-4)GlcNAc(b1-3)[Gal(b1-4)GlcNAc(b1-6)]Gal(b1-4)GlcNAc
# Outline: as §1
# [29] = molecular target: Gal(b1-4)GlcNAc(b1-3)[GlcNAc(b1-6)]Gal(b1-4)GlcNAc
# Outline: as §1
# [30] = molecular target: Gal(b1-4)GlcNAc(b1-6)Gal(b1-4)GlcNAc
# Outline: as §1
# [31] = molecular target: Gal(b1-4)GlcNAc(b1-6)GalNAc
# Outline: as §1
# [32] = molecular target: Gal(b1-4)GlcNAc(b1-6)[Gal(b1-3)]GalNAc
# Outline: as §1
# [33] = molecular target: Gal(b1-4)GlcNAc(b1-6)[Gal(b1-4)GlcNAc(b1-3)]GalNAc
# Outline: as §1
# [34] = molecular target: Gal(b1-4)GlcNAc6P
# Outline: as §1
# [35] = molecular target: Gal(b1-6)Gal
# Outline: as §1
# [36] = molecular target: Gal3S(b1-3)GalNAc
# Outline: as §1
# [37] = molecular target: Gal3S(b1-3)GlcNAc
# Outline: as §1
# [38] = molecular target: Gal3S(b1-3)[Fuc(a1-4)]GlcNAc
# Outline: as §1
binder,measurement,setting,value
GS7807P-bth-537-23-537 (Bacteroides thetaiotaomicron) (protein) NYENINSNPYEAPDLSADGYALGSAMNNLAGCVVSPDVNTAQFTDCLLGGPLGGYFADSNAGFTETISNFNPKDDWSRVFLKSDKIIPTLYSNLTQVKLVSQNTNDPVPYAIAQVIKVAAMHRVTDAFGPIPYSQIGANGEIATPYDSQEVTYNTFFDELNAAIATLNENSNEQLVPTADYIYKGDVKKWIRFANSLKLRLAIRIAYANPVKAQQMAEEAVNPANGGVIESNADNATWNYFETSQNPIYVATRYNQVQTSDHGGVPCLTGGDTHAAADIICYMNGYKDNRREKFFTKSEWAGQDYVGMRRGIVIPELKTTGHKYSGVNIAPTSPLYWMNAAEVAFLRAEGQAVFNFSMGGTAESFYNQGIRLSFEQWGADGVEDYLKDDVNKPTAYTDPAGTNTYQNALSNITIKWNDSADKEEKQERIIVQKWIANWQLGNEAWADFRRTGYPKLIPVKENKSGGVVDSEKGARRMPYPLDEFVSNKANVEYAIANYLHGADNMATDVWWASKK,glycan array binding signal (z-score),[1],2.06
same,glycan array binding signal (z-score),[2],-0.041
same,glycan array binding signal (z-score),[3],-0.208
same,glycan array binding signal (z-score),[4],0.037
same,glycan array binding signal (z-score),[5],0.214
same,glycan array binding signal (z-score),[6],0.137
same,glycan array binding signal (z-score),[7],-0.038
same,glycan array binding signal (z-score),[8],0.167
same,glycan array binding signal (z-score),[9],1.2
same,glycan array binding signal (z-score),[10],0.198
same,glycan array binding signal (z-score),[11],0.544
same,glycan array binding signal (z-score),[12],0.491
same,glycan array binding signal (z-score),[13],0.096
same,glycan array binding signal (z-score),[14],1.18
same,glycan array binding signal (z-score),[15],-0.358
same,glycan array binding signal (z-score),[16],0.306
same,glycan array binding signal (z-score),[17],0.587
same,glycan array binding signal (z-score),[18],-0.239
same,glycan array binding signal (z-score),[19],-0.261
same,glycan array binding signal (z-score),[20],-0.352
same,glycan array binding signal (z-score),[21],2.28
same,glycan array binding signal (z-score),[22],-0.246
same,glycan array binding signal (z-score),[23],-0.158
same,glycan array binding signal (z-score),[24],-0.003
same,glycan array binding signal (z-score),[25],0.943
same,glycan array binding signal (z-score),[26],-0.134
same,glycan array binding signal (z-score),[27],-0.071
same,glycan array binding signal (z-score),[28],1.04
same,glycan array binding signal (z-score),[29],-0.363
same,glycan array binding signal (z-score),[30],0.117
same,glycan array binding signal (z-score),[31],1.13
same,glycan array binding signal (z-score),[32],0.146
same,glycan array binding signal (z-score),[33],0.118
same,glycan array binding signal (z-score),[34],-0.182
same,glycan array binding signal (z-score),[35],-0.262
same,glycan array binding signal (z-score),[36],-0.351
same,glycan array binding signal (z-score),[37],-0.379
same,glycan array binding signal (z-score),[38],-0.332
